Assay results: publication PMC6155134
Changes are numbered by the printed parent chain. Names may count otherwise. Results are given in words; binding and its absence hold for the method and conditions named. In cells and extracts the contact can be indirect. Some entries that bind do so weakly or less than the wild type.

T1: BCL11A-L N-terminal deletion, residues 629-773 (human) (UniProt Q9H165)
T1 sequence: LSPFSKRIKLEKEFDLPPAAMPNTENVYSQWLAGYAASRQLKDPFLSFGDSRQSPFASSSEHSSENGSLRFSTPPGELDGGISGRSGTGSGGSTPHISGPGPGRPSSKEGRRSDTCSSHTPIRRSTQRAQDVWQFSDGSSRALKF

T2: TBR1 (T-box brain, 1), wild type (human) (UniProt Q16650)
T2 sequence: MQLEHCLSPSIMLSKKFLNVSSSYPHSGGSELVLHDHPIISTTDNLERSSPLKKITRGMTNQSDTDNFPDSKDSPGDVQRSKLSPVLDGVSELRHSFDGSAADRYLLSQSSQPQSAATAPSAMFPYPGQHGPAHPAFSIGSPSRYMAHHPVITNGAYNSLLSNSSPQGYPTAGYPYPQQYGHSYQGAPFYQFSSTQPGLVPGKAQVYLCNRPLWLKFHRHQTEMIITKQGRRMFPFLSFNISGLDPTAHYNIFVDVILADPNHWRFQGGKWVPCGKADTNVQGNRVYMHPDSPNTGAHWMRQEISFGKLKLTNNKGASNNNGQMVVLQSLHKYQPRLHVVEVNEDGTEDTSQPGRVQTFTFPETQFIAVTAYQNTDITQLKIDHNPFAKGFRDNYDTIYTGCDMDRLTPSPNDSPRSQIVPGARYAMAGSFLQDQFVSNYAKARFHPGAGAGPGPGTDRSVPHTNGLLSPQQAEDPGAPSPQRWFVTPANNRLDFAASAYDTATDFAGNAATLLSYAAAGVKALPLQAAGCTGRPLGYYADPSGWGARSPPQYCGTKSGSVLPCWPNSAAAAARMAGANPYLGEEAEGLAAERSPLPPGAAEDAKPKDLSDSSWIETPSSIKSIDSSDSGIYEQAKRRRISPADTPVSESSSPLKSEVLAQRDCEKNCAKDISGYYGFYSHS

B1: TBR1 (T-box brain, 1), wild type (protein, UniProt Q16650-1 1-682)
chain: T2 sequence
B2: TBR1 p.K228E (protein, UniProt Q16650-1 1-682)
chain: T2 sequence with K228E
B3: TBR1 p.N374H (protein, UniProt Q16650-1 1-682)
chain: T2 sequence with N374H
B4: TBR1 p.S568* (domain or fragment, UniProt Q16650-1 1-567)
chain: MQLEHCLSPSIMLSKKFLNVSSSYPHSGGSELVLHDHPIISTTDNLERSSPLKKITRGMTNQSDTDNFPDSKDSPGDVQRSKLSPVLDGVSELRHSFDGSAADRYLLSQSSQPQSAATAPSAMFPYPGQHGPAHPAFSIGSPSRYMAHHPVITNGAYNSLLSNSSPQGYPTAGYPYPQQYGHSYQGAPFYQFSSTQPGLVPGKAQVYLCNRPLWLKFHRHQTEMIITKQGRRMFPFLSFNISGLDPTAHYNIFVDVILADPNHWRFQGGKWVPCGKADTNVQGNRVYMHPDSPNTGAHWMRQEISFGKLKLTNNKGASNNNGQMVVLQSLHKYQPRLHVVEVNEDGTEDTSQPGRVQTFTFPETQFIAVTAYQNTDITQLKIDHNPFAKGFRDNYDTIYTGCDMDRLTPSPNDSPRSQIVPGARYAMAGSFLQDQFVSNYAKARFHPGAGAGPGPGTDRSVPHTNGLLSPQQAEDPGAPSPQRWFVTPANNRLDFAASAYDTATDFAGNAATLLSYAAAGVKALPLQAAGCTGRPLGYYADPSGWGARSPPQYCGTKSGSVLPCWPN
B5: TBR1 p.N394* (domain or fragment, UniProt Q16650-1 1-393)
chain: MQLEHCLSPSIMLSKKFLNVSSSYPHSGGSELVLHDHPIISTTDNLERSSPLKKITRGMTNQSDTDNFPDSKDSPGDVQRSKLSPVLDGVSELRHSFDGSAADRYLLSQSSQPQSAATAPSAMFPYPGQHGPAHPAFSIGSPSRYMAHHPVITNGAYNSLLSNSSPQGYPTAGYPYPQQYGHSYQGAPFYQFSSTQPGLVPGKAQVYLCNRPLWLKFHRHQTEMIITKQGRRMFPFLSFNISGLDPTAHYNIFVDVILADPNHWRFQGGKWVPCGKADTNVQGNRVYMHPDSPNTGAHWMRQEISFGKLKLTNNKGASNNNGQMVVLQSLHKYQPRLHVVEVNEDGTEDTSQPGRVQTFTFPETQFIAVTAYQNTDITQLKIDHNPFAKGFRD
B6: TBR1 p.V356M (protein, UniProt Q16650-1 1-682)
chain: T2 sequence with V356M
B7: TBR1 p.P542R (protein, UniProt Q16650-1 1-682)
chain: T2 sequence with P542R
B8: TBR1 p.S351* (domain or fragment, UniProt Q16650-1 1-350)
chain: MQLEHCLSPSIMLSKKFLNVSSSYPHSGGSELVLHDHPIISTTDNLERSSPLKKITRGMTNQSDTDNFPDSKDSPGDVQRSKLSPVLDGVSELRHSFDGSAADRYLLSQSSQPQSAATAPSAMFPYPGQHGPAHPAFSIGSPSRYMAHHPVITNGAYNSLLSNSSPQGYPTAGYPYPQQYGHSYQGAPFYQFSSTQPGLVPGKAQVYLCNRPLWLKFHRHQTEMIITKQGRRMFPFLSFNISGLDPTAHYNIFVDVILADPNHWRFQGGKWVPCGKADTNVQGNRVYMHPDSPNTGAHWMRQEISFGKLKLTNNKGASNNNGQMVVLQSLHKYQPRLHVVEVNEDGTEDT
B9: TBR1 p.Q418R (protein, UniProt Q16650-1 1-682)
chain: T2 sequence with Q418R

Experiments:
Experiment in all cases: FRET or BRET; BRET in live HEK293 cells transfected with equimolar YFP and Rluc fusion constructs; read 48 h after transfection, after 4 h at 37 °C with 60 µM EnduRen; corrected BRET ratio, YFP-NLS and Rluc-NLS as control proteins
BCL11A-L p.C48F (human) = BCL11A-L p.C48F (human) (UniProt Q9H165)
BCL11A-L p.H66Q (human) = BCL11A-L p.H66Q (human) (UniProt Q9H165)
[1] = molecular target: T1, BCL11A-L N-terminal deletion, residues 629-773 (human)
[2] = molecular target: BCL11A-L (773 amino acids) (human) (UniProt Q9H165)
BCL11A-L p.T47P (human) = BCL11A-L p.T47P (human) (UniProt Q9H165)
[3] = molecular target: T2, TBR1 (T-box brain, 1), wild type (human)
[4] = molecular target: BCL11A-L N-terminal deletion, residues 244-773 (human) (UniProt Q9H165)

Binder	binding [2]	other results
B1	binds	binding (BCL11A-L p.C48F (human)): binds; binding (BCL11A-L p.H66Q (human)): binds; binding [1]: binds; binding (BCL11A-L p.T47P (human)): binds; binding [3]: binds; binding [4]: binds
B2	binds	–
B3	binds	–
B4	binds	–
B5	binds	–
B6	binds	–
B7	binds	–
B8	no binding	–
B9	no binding	–
